Assays:
H1N1 PR8 virus [1] = tested on: H1N1 PR8 virus; design: species or system BALB/c mice; conditions: mouse, in vivo
PR8 Virus (H1N1) = format: cell-based, influenza virus
[2] = Pharmacokinetic evaluation in mice, serum antibody by ELISA; format: in vivo, BALB/c mice; conditions: single bolus injection of 5 mg/ml of antibody, FIG. 9
[3] = tested on: HA polypeptides from different Influenza subtypes; test: ELISA fractional saturation, equilibrium dissociation constant (KD); format: binding, influenza virus; conditions: FIG. 2
H1N1 PR8 virus [4] = tested on: H1N1 PR8 virus; design: species or system BALB/c mice; conditions: mouse, in vivo; remark: listed apart in the source

B1: exemplary antibody: Anti-HA monoclonal antibody with VH chain SEQ ID NO: 1 and VL chain SEQ ID NO: 33 (Table 4) (antibody, V domains shown)
VH: EVQLLESGGGLVKPGQSLKLSCAASGFTFTSYGMHWVRQPPGKGLEWVAVISYDGSYKYYADSVQGRFTISRDNSKNTLYLQMNSLRAEDTAVYYCAKDSELRSLLYFEWLSQGYFNPWGAGTTLTVSSASTK
VL: EIVMTQSPDSLAVSLGERATINCKSSQSVTYNYKNYLAWYQQKPGQPPKLLIYWASTRESGVPDRFSGSGSGTDFTLTISSLQAEDVAVYYCQQYYRTPPTFGGGTKLDIKGS
modifications: Exemplary VH Chain; Exemplary VL Chain
- level of infection (viral load, bronchio-aveolar lavage, qPCR) (H1N1 PR8 virus [1]): reduced level of infection
- onset / development of H1N1 infection (H1N1 PR8 virus [1]): delays the development of H1N1 infection
- weight loss post infection (H1N1 PR8 virus [1]): little to no weight loss
- virus-induced plaque production (PR8 Virus (H1N1)): inhibits virus-induced plaque production
- time of peak serum concentration [2]: approximately 30 hours
- specificity of binding to HA [3]: binds specifically to HA
- survival rate (H1N1 PR8 virus [4]): increased survival rate
- viral associated weight loss (H1N1 PR8 virus [4]): reversal in viral associated weight loss
